In PubChem BioAssay AID1963576 (National Center for Advancing Translational Sciences (NCATS), 2024):
In all, about 46,000 compounds went through this assay and about 60 (0.1%) were called active. Not shown: some 3% with an inconclusive outcome. The call rests on the fitted dose curve; in most records, active means well fitted inhibition curve with a large enough effect; inconclusive means small, poorly fitted or top-dose-only effect; inactive means no such curve, though single readings can be large or run the other way. This is one part of the list.

experiment: Primary qHTS assay for Inhibitors of ovarian cancer metastasis using an organotypic tumor microenvironment (TME) model.; further: nearly all actives have a fitted effect of over 65% in size;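 on activity change, negative = inhibition: plate controls were DMSO wells for no effect and tomatine positive control wells for full effect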; details: SKOV3ip1-GFP adhesion/invasion on 3D omental model, fluorescence; series mostly up to 45.8 µM; activity change, negative = inhibition: at the top concentration
In short: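 qHTS, 4-pt dose (0.36-46 umol/L); SKOV3ip1-GFP, 1,200 cells/well, no FBS; primary omental fibroblast/mesothelial co-culture 48 h pre-grown; 2 h RT + 16 h 37 C; PBS wash, 4% PFA; GFP count 488/509 nm.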

Activity change, negative = inhibition, inactive:
O=c1ccc2cc(S(=O)(=O)N3CCCC3)ccc2[nH]1 5.14%
CSc1cccc(NC(=O)CN(C)S(=O)(=O)c2ccc3c(c2)n(C)c(=O)c(=O)n3C)c1 6%
COc1ccccc1CNC(=O)c1c2c(nc3ccccc13)C(=O)N(C1CCCCC1)C2 13.3%
CCOC(=O)C1CCCN(CCC(=O)Nc2ccc(OC)cc2OC)C1 (stereo not given) 2.93%
Cc1ccc(-c2nnc(Nc3ccc(C(N)=O)cc3)c3ccccc23)cc1S(=O)(=O)N1CCCCC1 25.8%
COc1ccc(NC(=O)c2c(C)oc3ccc(O)c(CN4CCN(C)CC4)c23)cc1Cl -0.372%
COc1ccc(CNC(=O)CCc2c(C)nc3c(c2C)c(=O)n(C)c(=O)n3C)cc1 8.3%
O=C(CSc1nc2ccccc2n1Cc1ccc(F)c(Cl)c1)N1CCN(c2ccc(F)cc2)CC1 -18.1%
CCc1ccccc1NC(=O)CC(c1ccc(F)cc1)N1Cc2ccccc2C1=O (stereo not given) -7.21%
CCOC(=O)c1cc2c(=O)n3ccccc3nc2n(Cc2ccco2)c1=NC(=O)c1cc(C)cc(C)c1 3.45%
COC(=O)c1ccc(NC(=O)c2nn(C)c3c2CS(=O)(=O)c2ccccc2-3)cc1 -6.29%
COc1ccc(OC)c(CCNC(=O)CCCc2nnc3n(C)c(=O)c4sccc4n23)c1 9.39%
Cc1ccc(Cn2c(C)c(CNC3CCCCC3)c(C(=O)O)c2C)cc1 1.18%
CCC(=O)N1CCc2cc(S(=O)(=O)NC(C(=O)NCc3ccc(OC)cc3)C(C)C)ccc21 (stereo not given) -18.6%
COc1ccc(C)cc1NC(=O)CN1CCN(CC(=O)Nc2ccccc2F)CC1 -24.1%
Cc1cc(C)c(NC(=O)c2sc3nc(C)cc(C)c3c2N)c(C)c1 -0.728%
COc1ccc2[nH]cc(CCNC(=O)Nc3ccccc3C)c2c1 8.3%
O=C(NCCc1ccc(F)cc1)C(=O)NCC(c1cccs1)S(=O)(=O)c1cccs1 (stereo not given) -0.314%
CC(=O)N1CCCc2cc(S(=O)(=O)N3CCC(C(=O)NC4CCCCC4)CC3)ccc21 4.78%
CC(C)(C)OC(=O)N1CCC(c2c(C(=O)N3CCN(C4CCCCC4)CC3)cnn2-c2cccc(Cl)c2)CC1 -1.45%
COc1ccc(NC(=O)CSC2=Nc3ccccc3C3=NC(CCC(=O)NCCc4ccccc4)C(=O)N23)cc1 (stereo not given) -14.6%
CCN1C(=O)C(O)(c2c(C)[nH]c3ccccc23)c2ccccc21 (stereo not given) -12.5%
Cc1oc2ncn(C)c(=O)c2c1C(=O)N(C)c1ccccc1F 0.523%
Cc1ccc(C)c(S(=O)(=O)NCC(c2ccc(N(C)C)cc2)N2CCOCC2)c1 (stereo not given) -11.4%
O=C(NCc1ccccc1Cl)C1CCCN(c2nc3ccccc3n3cccc23)C1 (stereo not given) -5.61%
Cc1oc2ncn(CC(C)C)c(=O)c2c1C(=O)Nc1ccc(Cl)cn1 1.4%
Cc1ccc(C)c(NC(=O)C(C)N(c2ccccc2)S(C)(=O)=O)c1 (stereo not given) 4.95%
Cc1cccc(-n2cc(-c3ccccc3)nc2SCC(=O)Nc2ccccc2Cl)c1 -1.58%
CCOC(=O)c1sc(NC(=O)c2nc(SC)ncc2Cl)c(C(=O)OCC)c1C -2.82%
COc1ccc(-n2c(-c3ccc(Cl)cc3)cc3c2CC(C)(C)CC3=O)c(OC)c1 -10.5%
CC1=C(C(=O)Nc2ccc(C)cc2C)C(c2ccc(C(C)C)cc2)n2nc(C(F)(F)F)nc2N1 (stereo not given) -2.83%
CC(C)c1ccc(NS(=O)(=O)c2ccc3[nH]cc(C(=O)NC4CCCCC4)c(=O)c3c2)cc1 -20.2%
Cc1cccc(OCCn2nnc3sc4c(c3c2=O)CCCC4)c1 2.23%
COc1ccc(-c2nc3ccccc3s2)cc1NC(=O)c1ccccc1OC 4.22%
CNC(=O)c1c(NC(=O)c2cc(=O)c3ccccc3o2)sc2c1CCC2 15.7%
COc1ccc(CNC(=O)Cc2c(C)c3ccc(O)cc3oc2=O)cc1 1.57%
Cc1cccc(NC(=O)c2sc3cccc(Cl)c3c2Cl)c1 -0.239%
Cc1cccc(C)c1NC(=O)c1ccc2nc(CCc3ccccc3)oc2c1 2.28%
COCCCNC(=O)c1c(C)nn(-c2ccc(F)cc2)c1-n1cccc1 -10%
Cc1c(C(=O)Nc2ccc(F)cc2F)nnn1-c1ccccc1Br 10.3%
COc1ccc(CCNC(=O)c2ccc3c(c2)nc2n3CCOC2)cc1OC 10.7%
COc1cccc(-c2nc(S(=O)(=O)c3ccccc3)c(NCc3ccccc3)o2)c1 -3.82%
Cn1c(=O)c2sccc2n2c(CCCC(=O)Nc3ccc(F)c(F)c3)nnc12 0.0887%
COc1cccc(-c2cc(C(F)(F)F)nc(NCc3ccc(F)cc3)n2)c1 -23.4%
O=C(NCCCO)C(=O)Nc1c2c(nn1-c1ccc(F)cc1)CSC2 10.9%
Cc1nnc(N2CCC(C(=O)NCc3ccc(N(C)C)cc3)CC2)c2nn(-c3ccccc3)c(C)c12 0.731%
Cc1ccc(C(=O)COC(=O)C(Cc2c[nH]c3ccccc23)NC(=O)c2ccc(Br)cc2)cc1 (stereo not given) 6.89%
CCOc1ccccc1CNC(=O)CC(C)n1ccc(C)n1 (stereo not given) -0.799%
CN(CC(=O)Nc1cccc(C#N)c1)S(=O)(=O)c1cc2c(cc1Cl)NC(=O)CO2 -4.1%
COc1ccc(OC)c(CNC(=O)Cn2nc(C)c3c(C)n(-c4ccccc4)nc3c2=O)c1 12.8%
Cc1cc2oc(C(=O)Nc3cccc(-c4nc5ccccc5o4)c3)c(C)c2cc1Cl -2.13%
O=C(CSc1nc2ccccc2n1Cc1cccc(Cl)c1)N1CCN(c2ccc(F)cc2)CC1 -17.4%
COc1ccccc1CNC(=O)c1ccc(CN2CC(=O)N3CCCCC3C2=O)cc1 (stereo not given) 5.68%
Cc1ccc(C)c(NC(=O)N2CCC(N3CCN(Cc4ccc(F)cc4)C(=O)C3=O)CC2)c1 4.28%
COc1ccccc1C(=O)NCC1(N2CCN(C)CC2)CCCCC1 0.229%
COCCCNC(=O)C1CCCN(S(=O)(=O)c2ccc3c(c2)oc(=O)n3C)C1 (stereo not given) 5.85%
CCOC(=O)c1cccc(NC(=O)CCn2nc(C)c3c(C)n(-c4ccccc4)nc3c2=O)c1 0.713%
CC1=Nc2cc(C(=O)NC3CCCC3)ccc2Sc2ccc(Br)cc21 25%
Cc1cc2c(cc1S(=O)(=O)N(C)CC(=O)Nc1cccc(C#N)c1)OCC(=O)N2 -8.76%
CCOC(=O)N1CCc2c(sc3c2c(=O)n(-c2ccc(Cl)cc2)c(=O)n3Cc2cccc(C)c2)C1 -7.62%
Cn1c(=O)oc2cc(S(=O)(=O)N3CCCC(C(=O)N4CCN(c5ccccc5F)CC4)C3)ccc21 (stereo not given) 9.23%
CCOCCCNC(=O)c1c[nH]c2ccc(S(=O)(=O)Nc3cccc(Cl)c3C)cc2c1=O 2.11%
Cc1ccccc1Nc1cc(C(=O)NC2CCCCC2)c2ccccc2n1 1.79%
Fc1ccc(Nc2ncnc3c2nc2n3CCCC2)cc1 14.5%
Cc1c(NC(=O)c2ccccc2)cc(C(C)C)c(O)c1S(=O)(=O)c1ccc(Cl)cc1 -5.47%
CCOCCCn1c(SCC(=O)NCCCOC)nc2c(sc3ccccc32)c1=O -14.6%
Cc1ccc(CCNc2ncnc3onc(C)c23)cc1 -7.31%
COc1ccccc1N1CCN(S(=O)(=O)c2cc3[nH]c(=O)c(=O)[nH]c3cc2C)CC1 0.498%
CCOc1ccc(CNC(=O)CCC(=O)N2CCSc3ccccc32)cc1 2.52%
Cc1ccc2occ(CC(=O)N(Cc3ccc(N(C)C)cc3)C3CCS(=O)(=O)C3)c2c1 (stereo not given) -24.3%
CCN(CC)C(=O)C1CCCN(c2ncnc3onc(C)c23)C1 (stereo not given) 0.974%

outcome, inactive:
Cc1nn2c(=O)cc(COC(=O)c3ccc(C(C)(C)C)cc3)nc2s1
COc1cccc(N2CCN(S(=O)(=O)c3ccc(-c4cnc(C5CC5)o4)cc3)CC2)c1
COc1ccc(CCNC(=O)c2ccc(CS(=O)(=O)c3ccc(C)cc3)o2)cc1OC
O=C(Nc1c(C(=O)N2CCN(c3ccc(F)cc3)CC2)oc2ccccc12)c1ccco1
CCc1ccc(NC(=O)CSC2=Nc3ccccc3C3=NC(CCC(=O)NCc4cccs4)C(=O)N23)cc1 (stereo not given)
CCn1cc(C(=O)NCCc2ccccc2)c(=O)c2cc(S(=O)(=O)N3CCOCC3)ccc21
Cc1cccc(-n2ccnc2SCC(=O)Nc2ccccc2C(F)(F)F)c1
COc1cccc(N2C(=O)CSC23C(=O)N(CC(=O)Nc2cc(C)ccc2C)c2ccccc23)c1 (stereo not given)
COc1cc(CN2CCc3nc(Nc4ccc5c(c4)OCCO5)ncc3C2)cc(OC)c1OC
Cc1ccc2sc(N3CCN(C(=O)C4COc5ccccc5O4)CC3)nc2c1C (stereo not given)
Cc1ccc(Cl)cc1NC(=O)c1oc2ccc(S(=O)(=O)N3CCC4(CC3)OCCO4)cc2c1C
CC1CCN(S(=O)(=O)c2ccc3nc(-c4cccnc4)cc(C(=O)NCCCOC(C)C)c3c2)CC1
COc1ccc(-c2cc(-c3ccccc3)nc3c2COc2ccc(Cl)cc2-3)cc1
COc1ccc(NC(=O)Nc2cn(CC(C)C)c(=O)c3ccccc23)c(OC)c1
CCOC(=O)N1CCC(NC(=O)c2cnn(-c3cccc(C)c3)c2-n2cccc2)CC1
COC(=O)c1ccc(NS(=O)(=O)c2ccc3[nH]c4c(c3c2)CCCCC4)cc1
CCOc1ccc(CNCCNC(=O)c2nonc2N)cc1
CC1=C(C(=O)Nc2ccccc2)C(c2ccncc2)n2nc(SCc3ccccc3)nc2N1 (stereo not given)
CC(C)c1ccc(NC(=O)CCS(=O)(=O)c2ccc(Br)s2)cc1
COc1ccc(NC(=O)C2=C(C)Nc3nc(SC)nn3C2c2cc(OC)ccc2OC)cc1 (stereo not given)
CCc1nn(CC(=O)NCc2cccc(OC)c2OC)c(=O)c2cc3occc3n12
O=C(Nc1ccc(Cl)cc1)c1ccc2c(c1)N(Cc1ccccc1)C(=O)c1ccccc1S2(=O)=O
CCN(CC)c1ccc(NC(=O)CN2CCN(CC(=O)Nc3ccccc3OC)CC2)cc1
O=C(NCCS(=O)(=O)N1CCN(c2ccc(F)cc2)CC1)c1cc(=O)c2ccccc2o1
